Test results: PubChem BioAssay AID1030 (National Center for Advancing Translational Sciences (NCATS), 2008)
In all, about 220,000 compounds went through this assay and about 16,000 (7.3%) were called active. Inconclusive results, whose numbers are uncertain, are shown with a selection of clear calls. Calls follow the shape of the dose curve; as a rule, active = well fitted inhibition curve with a large enough effect (not every such curve was filed as active); inconclusive = small, poorly fitted or top-dose-only effect, or another doubt; inactive = no such curve, though single readings can be large or run the other way. Potencies of inconclusive entries are doubtful fits and often do not repeat.

Each compound was assayed against Aldehyde dehydrogenase 1A1 (Homo sapiens) (UniProt P00352) (assay: qHTS Assay for Inhibitors of Aldehyde Dehydrogenase 1 (ALDH1A1)). Details: Purified ALDH1A1, NADH fluorescence, propionaldehyde substrate; series mostly up to 75.3 µM; activity, negative = inhibition: at the top concentration.
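For activity, negative = inhibition in this document: plate controls were no enzyme wells and a reference inhibitor.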
Potency is read from the fitted curve at half-maximal effect; tags tell the direction and shape of the fitted curve.

UniProt P00352, sequence (P00352 whole entry, looked up): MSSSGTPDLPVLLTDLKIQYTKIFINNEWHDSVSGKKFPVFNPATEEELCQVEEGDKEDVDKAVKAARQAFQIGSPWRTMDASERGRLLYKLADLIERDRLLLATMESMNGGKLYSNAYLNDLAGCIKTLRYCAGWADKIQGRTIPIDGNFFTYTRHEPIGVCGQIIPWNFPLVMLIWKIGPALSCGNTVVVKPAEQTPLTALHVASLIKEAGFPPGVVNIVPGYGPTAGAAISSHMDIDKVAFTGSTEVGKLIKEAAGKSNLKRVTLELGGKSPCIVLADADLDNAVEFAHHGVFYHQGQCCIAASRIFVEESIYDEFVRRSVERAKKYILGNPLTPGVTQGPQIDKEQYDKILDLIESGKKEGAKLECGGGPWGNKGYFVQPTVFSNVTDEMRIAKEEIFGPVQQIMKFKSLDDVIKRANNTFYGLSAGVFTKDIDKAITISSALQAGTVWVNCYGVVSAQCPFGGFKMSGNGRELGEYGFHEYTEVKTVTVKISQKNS

Potency, active:
O=C(O)COc1c(Cl)cc(/C=C2\NC(=O)NC2=O)cc1Br 17.8 µM, COc1ccc(C(=O)CSC#N)cc1OC 1.26 µM, C=CCOc1c(CNc2nccs2)cccc1OCC 2.51 µM, Cc1cccc(NCCC(=O)c2ccc([N+](=O)[O-])cc2)c1C 0.178 µM, COc1ccc(CN(CCC(c2ccccc2)c2ccco2)C(=O)c2ccco2)cc1 (stereo not drawn) 7.94 µM, CCCN1CCc2c(sc(NC(=S)NC(=O)c3ccccc3)c2C#N)C1 7.94 µM, CCCCS/C(=C(/C#N)C(N)=O)c1cc2c([nH]1)CCCC2 14.1 µM, CC(C)COC(=O)NCC12C=CC(O1)C1C(=O)N(c3ccc(Cl)cc3)C(=O)C12 (stereo not drawn) 0.562 µM

Potency, inconclusive:
Cc1cccc(NS(=O)(=O)c2ccc(C)c(C(=O)OCC(=O)Nc3cc(C)on3)c2)c1 7.94 µM [inhibitor, partial curve], O=C(Cc1ccccc1)O/N=C1\CCCc2ccccc21 35.5 µM [inhibitor, single point], CCOC(=O)c1ccc(NC(=O)CSc2nc(NC(=O)c3ccccc3)c3c(C)c(C)oc3n2)cc1 35.5 µM [inhibitor, single point], COc1ccc(CCC(=O)N/N=C\c2cccs2)cc1 28.2 µM [inhibitor, single point], O=C1C2C3CCCC3=C3CCCC3C2C(=O)N1c1cccc(Cl)c1 (stereo not drawn) 35.5 µM [inhibitor, single point], COCC1CCN(Cc2nc(COc3ccccc3)no2)C1 (stereo not drawn) 39.8 µM [inhibitor, single point], O=C(c1cccc(N2C(=O)C3CC=CCC3C2=O)c1)N1CCN(c2ccccc2)CC1 (stereo not drawn) 39.8 µM [inhibitor, single point], COc1ccc(/C(N)=N/OC(=O)Cc2cccs2)cc1OC 39.8 µM [inhibitor, single point], O=[N+]([O-])c1cccc(N=Cc2sc3ccccc3c2O)c1 39.8 µM [inhibitor, single point], Cc1ccc(-c2nnn(CC(=O)N(CCN3CCOCC3)C(C(=O)NC3CCCC3)c3ccncc3)n2)o1 (stereo not drawn) 44.7 µM [inhibitor, single point], CCOc1ccc(N2CC(=O)Nc3ccccc3NCC2=O)cc1 39.8 µM [inhibitor, single point], COC(=O)c1ccc2nc(NC(=O)CSCC(=O)OCC(=O)c3ccccc3)sc2c1 39.8 µM [inhibitor, single point], COc1cccc(C2=NO[C@@H]3C(=O)N(Cc4ccccc4)C(=O)[C@H]23)c1OC 20 µM [inhibitor, partial curve], CCC1CCCN1Cn1cnc2c([nH]c3ccc(C)cc32)c1=O (stereo not drawn) 22.4 µM [inhibitor, partial curve], O=C(CN1CCSc2ccccc21)NCCCc1ccccc1 25.1 µM [inhibitor, single point], COc1ccc(N2CCN(c3ncnc4c3nnn4Cc3ccccc3Cl)CC2)cc1 39.8 µM [inhibitor, single point], COc1ccc(-c2cc(C(=O)Nc3c(C)nn(Cc4ccccc4)c3C)no2)cc1 39.8 µM [inhibitor, single point], O=[N+]([O-])c1ccc(N/N=C2/CCCCC2c2ccccn2)c([N+](=O)[O-])c1 (stereo not drawn) 39.8 µM [inhibitor, single point], Cc1ccccc1OCC(=O)Nc1ccc(S(=O)(=O)Nc2ccccn2)cc1 31.6 µM [inhibitor, single point], Cc1cc2ncn(-c3ncnc4scc(-c5ccccc5)c34)c2cc1C 39.8 µM [inhibitor, single point], CCOC(=O)N1CCN(C(=O)c2ccc3c(=O)n(CCc4ccccc4)c(=O)[nH]c3c2)CC1 25.1 µM [inhibitor, single point], CC1(C(=O)OCC(=O)Nc2ccc3ccccc3c2)CC1(Cl)Cl (stereo not drawn) 39.8 µM [inhibitor, single point], CN(C)CCCCOc1cccc(Br)c1 39.8 µM [inhibitor, single point], COC(=O)/C(=C\c1ccc2c(c1)c1ccccc1n2C)NC(=O)c1ccccc1 28.2 µM [inhibitor, single point], COc1ccc2oc(=O)c(C(=O)NCc3ccco3)cc2c1 28.2 µM [inhibitor, partial curve]

activity, negative = inhibition, inactive:
COc1ccc2[nH]cc(CCNc3nc(-c4ccccc4OC)nc4ccccc34)c2c1 5.35%, COc1ccc(S(=O)(=O)N2CCN(S(=O)(=O)c3ccc4c(c3)OCCO4)CC2)cc1C -0.272%, CS(=O)(=O)c1ncc(CO)n1Cc1ccccc1 3.82%, Cc1cc(-n2c(C)cc(C(=O)CSc3nnnn3-c3ccc(Cl)cc3)c2C)no1 8.32%, COC(=O)C/C=C\[C@@H](C)[C@@H](/C=N\OC[C@@H]1O[C@H](c2ccccc2)C=C[C@@H]1Oc1ccc(OC)cc1)OC -10.1% [at 13.5 µM], CCC(=O)N1CCN(c2ccc(NC(=O)COc3ccccc3Cl)cc2)CC1 -8.96%, CCNC(=S)Nc1ccc(Cl)c([N+](=O)[O-])c1 -1.37%, CC(C)c1ccc(C(=O)NC2=NCCS2)cc1 2.73%, N=C(N)SCC(=O)O 6.62% [at 13.5 µM], CCOC(=O)c1c[nH]c2c3c(ccc2c1=O)CCCC3 -10.1%, Nc1ccc(S(=O)(=O)NNC(=O)C(=O)NNc2ccccc2)cc1 -1.46%, O=[N+]([O-])c1cccc(-c2nnc3c4ccccc4c4ccccc4n23)c1 -0.482%, NNC(=O)CCc1nc2ccc(O)cc2[nH]1 -2.01%, CN1CCN(/N=C/c2ccc(-c3ccccc3)cc2)CC1 -3.76%, CCC(=O)N1CCN(c2ccc(NC(=S)NC(=O)COc3ccccc3)cc2)CC1 -1.05%
